Test results from patent publication US7232660 (IMMUNEX, dated 2007).

Experiments:
Experiment in all cases: cell-based or functional assay
[1] = target: anti-CD30 monoclonal antibody M44
[2] = target: anti-CD30 monoclonal antibody M67
[3] = target: T1, murine CD30-L, full length, membrane-bound (murine, UniProt P32972 1-239)
T1 sequence: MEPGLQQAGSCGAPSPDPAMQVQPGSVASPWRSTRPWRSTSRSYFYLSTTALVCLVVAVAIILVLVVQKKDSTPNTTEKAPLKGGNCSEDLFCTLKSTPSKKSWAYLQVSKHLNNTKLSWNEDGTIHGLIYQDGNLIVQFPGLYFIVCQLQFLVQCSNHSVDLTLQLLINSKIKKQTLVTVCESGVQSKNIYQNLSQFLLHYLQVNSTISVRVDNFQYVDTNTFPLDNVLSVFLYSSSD

[4] = target: T2, human CD30-L, full length, membrane-bound (human, UniProt P32971 1-234)
T2 sequence: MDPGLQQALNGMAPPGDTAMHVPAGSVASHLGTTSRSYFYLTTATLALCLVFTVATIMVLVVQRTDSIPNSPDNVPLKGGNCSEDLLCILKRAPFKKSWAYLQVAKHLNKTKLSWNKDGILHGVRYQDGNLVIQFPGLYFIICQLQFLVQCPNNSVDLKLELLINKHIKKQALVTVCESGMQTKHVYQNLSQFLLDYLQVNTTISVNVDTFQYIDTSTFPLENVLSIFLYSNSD

Measured: blocking of enhanced proliferation of HDLM-2 and L-540 cells

B1: soluble human CD30/Fc fusion protein (Fc fusion)
chain: FPQDRPFEDTCHGNPSHYYDKAVRRCCYRCPMGLFPTQQCPQRPTDCRKQCEPDYYLDEADRCTACVTCSRDDLVEKTPCAWNSSRVCECRPGMFCSTSAVNSCARCFFHSVCPAGMIVKFPGTAQKNTVCEPASPGVSPACASPENCKEPSSGTIPQAKPTPVSPATSSASTMPVRGGTRLAQEAASKLTRAPDSPSSVGRPSSDPGLSPTQPCPEGSGDCRKQCEPDYYLDEAGRCTACVSCSRDDLVEKTPCAWNSSRTCECRPGMICATSATNSCARCVPYPICAGETVTKPQDMAEKDTTFEAPPLGTQPDCNPTPENGEAPASTSPTQSLLVDSQASKTLPIPTSAPVALSSTGK[not shown - human IgG1 Fc]
50 fold excess: [1] | [2] | [3] | [4]
